According to paper PMC7819943, “Rice protein-binding microarrays: a tool to detect cis-acting elements near promoter regions in rice”:
This is one part of the list.

biological target: T1, OsWOX13 (Oryza sativa, UniProt Q5QMM3 1-267); assay: protein-binding microarray (RPBM); PBS, 2% BSA, 51.3 ng/ul salmon testes DNA, 50 uM zinc acetate, 200 nM TF, 25 C, 1 h; high values mean tight binding; conditions: protein: recombinant; tags: N-terminal polyhistidine and DsRed monomer fusion (pET32a); label: CyDye5-dUTP incorporated in the synthesized complementary strand; 3' TTTTT single-stranded linker to array surface; dsDNA, one strand shown
T1 sequence: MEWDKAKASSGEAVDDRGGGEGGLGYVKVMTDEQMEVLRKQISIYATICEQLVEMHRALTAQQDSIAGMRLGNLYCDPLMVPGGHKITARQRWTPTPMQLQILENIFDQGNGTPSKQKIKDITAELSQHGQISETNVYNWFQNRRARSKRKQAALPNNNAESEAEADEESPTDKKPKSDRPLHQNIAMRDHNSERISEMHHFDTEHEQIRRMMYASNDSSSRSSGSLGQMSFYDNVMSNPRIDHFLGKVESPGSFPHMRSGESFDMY
In short: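 The binding signal for each feature is its fluorescence intensity in arbitrary units. An Axon 4000B scanner was used to read a custom Agilent array that had been made double-stranded with Cy5-dUTP primer extension, blocked with 2% BSA, incubated at 25 °C for 1 h with 200 nM protein in PBS, 2% BSA, salmon testes DNA and 50 µM zinc acetate, and washed. The protein was an N-terminal polyhistidine–DsRed transcription factor fusion from E. coli BL21-CodonPlus, purified on Ni–NTA.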

| Sequence | binding signal |
| --- | --- |
| ACTAACAGTAATAAATTAATGGCGCACGTTGTTTCAAAGACGGAGTCACCTAGTGCAG | 8720 fluorescence intensity (a.u.) |
| GTAGTGCGTAATTGCGTATGTCCAGCCCTGCTCATCAGTTCGGAGTCACCTAGTGCAG | 3380 fluorescence intensity (a.u.) |
| CAAATTAGTTCCAGTAAATTTAACATTGAACGTATTTTAACGGAGTCACCTAGTGCAG | 4010 fluorescence intensity (a.u.) |
| GGTGATTTGGGATCTAGATGATACATTATGATAAGTTATGCGGAGTCACCTAGTGCAG | 20300 fluorescence intensity (a.u.) |
| AGTACTCATAATTTCCATTAATTAAGACTCATTTAATTAGCGGAGTCACCTAGTGCAG | 28000 fluorescence intensity (a.u.) |
| TTGAAAACTATATAATTAGAAACACGAGGATGATAAGGTTCGGAGTCACCTAGTGCAG | 5060 fluorescence intensity (a.u.) |
| CTAAAATAAACCATACTAAATTTTGACAATACCAAGACTTCGGAGTCACCTAGTGCAG | 4640 fluorescence intensity (a.u.) |
| GTAAGAGTACTTAAATAGATTGACACATGAAGATACATGACGGAGTCACCTAGTGCAG | 6730 fluorescence intensity (a.u.) |
| ATTTGATTAATGTCTTGTATGATATGGTCGACAGTGAGGACGGAGTCACCTAGTGCAG | 41800 fluorescence intensity (a.u.) |
| ACCAATAATTAAATTATAAAAGAAGGGAGCATATATATTACGGAGTCACCTAGTGCAG | 15700 fluorescence intensity (a.u.) |
| TAATCTAGATTATAATAATCTTAAACTGAAACAAACAGGGCGGAGTCACCTAGTGCAG | 10900 fluorescence intensity (a.u.) |
| GGTCTGACTGATTGCGTCGTGTAACAAACATTATATTCTTCGGAGTCACCTAGTGCAG | 34700 fluorescence intensity (a.u.) |
| ATTGAATTGTTTCCTTGTTTATCAATTCAAATTTGAAGTTCGGAGTCACCTAGTGCAG | 3270 fluorescence intensity (a.u.) |
| CCTAATGAATCTTAGGTAATTAAGCAGCGTAAGCTCTACTCGGAGTCACCTAGTGCAG | 6980 fluorescence intensity (a.u.) |
| ATTAAATCTCGCTCTTAATTGCGAAGCTTACTCCATTGACCGGAGTCACCTAGTGCAG | 12600 fluorescence intensity (a.u.) |
| GCCTAATTACACCATGATTAGACAACGTAGTGTTACATTACGGAGTCACCTAGTGCAG | 41400 fluorescence intensity (a.u.) |
| TTTTATAATTTATATATGGTCAACACACGAAATTGAATGTCGGAGTCACCTAGTGCAG | 15100 fluorescence intensity (a.u.) |
| TTACAAAATTAATTTATATACTTAATAGGGACTTGGCCACCGGAGTCACCTAGTGCAG | 29100 fluorescence intensity (a.u.) |
| TCAGTGAGGATATTAATTGAACTCCCATTGCCAACACCCCCGGAGTCACCTAGTGCAG | 6400 fluorescence intensity (a.u.) |
| TGTGGAAGATTATGATTAATTGAAAAGATAATGTACGTGCCGGAGTCACCTAGTGCAG | 51900 fluorescence intensity (a.u.) |
| CTATAAAATTATGTAGCTCTGTGATGGAAAGCTTGAAGGACGGAGTCACCTAGTGCAG | 3520 fluorescence intensity (a.u.) |
| AATATTGACATGAAATTATATTAACGTTAGTCAAATATAACGGAGTCACCTAGTGCAG | 8910 fluorescence intensity (a.u.) |
| AGCTAATTAAGAATAAGTTATAACTAGACCAATAATCAAGCGGAGTCACCTAGTGCAG | 20200 fluorescence intensity (a.u.) |
| TGGGCTCACCTGATTGGGCCCACACTGCAACGGAGAGCCCCGGAGTCACCTAGTGCAG | 6410 fluorescence intensity (a.u.) |
| AAACCGTTGATTGGATTGACATTGACTTTGCTCTTAAATCCGGAGTCACCTAGTGCAG | 30200 fluorescence intensity (a.u.) |
| ATTTGATGATCACACACTCATGTATGCATGTTATTAGTATCGGAGTCACCTAGTGCAG | 3710 fluorescence intensity (a.u.) |
| AATCTATCATTAGCACATGTGGGTTACTGTAGCACTATGGCGGAGTCACCTAGTGCAG | 3740 fluorescence intensity (a.u.) |

| Sequence | binding signal |
| --- | --- |
| GGTTGTGATTGGTTGAGAAGTGGAGGTAGCTGAGAAAATTCGGAGTCACCTAGTGCAG | 32200 fluorescence intensity (a.u.) |
| TTTTAATTATTGCTCTAGGTATATATGAACTAATAATGCTCGGAGTCACCTAGTGCAG | 19400 fluorescence intensity (a.u.) |
| GGTGAGAATGATTGAAGAAAGTATGTGATTGGTTGAAAAGCGGAGTCACCTAGTGCAG | 39400 fluorescence intensity (a.u.) |
| GAGATGACCTAAACGATCATAATTAGGCGGTGTTGAGTTGCGGAGTCACCTAGTGCAG | 3620 fluorescence intensity (a.u.) |
| AGAGATTGAGAGTGCTAGCTGATGCTACAGGCCTACAGCCCGGAGTCACCTAGTGCAG | 17400 fluorescence intensity (a.u.) |
| CTATAAATAAGCCCATTAATTTGTCCCAAGCAAAGCAAGCCGGAGTCACCTAGTGCAG | 7020 fluorescence intensity (a.u.) |
| TTGTGAATGAAATTATGAAACAGAAGATTGTGATCTATTTCGGAGTCACCTAGTGCAG | 7850 fluorescence intensity (a.u.) |
| GTTGCCGTCGTCCTATCAATCACTTGGCCGGTCACAGACCCGGAGTCACCTAGTGCAG | 9060 fluorescence intensity (a.u.) |
| CTCGTTGACAGCCCTACTGCCTGCCTATGTGAATTTCCATCGGAGTCACCTAGTGCAG | 5590 fluorescence intensity (a.u.) |
| ATCTACACAAATTAGATGAGTTAGCAAGCTTGTCCTCTAACGGAGTCACCTAGTGCAG | 6430 fluorescence intensity (a.u.) |
| CCAAGAATAATTGGGTTTTGTTTAGATCAAAGTATAGCGTCGGAGTCACCTAGTGCAG | 7330 fluorescence intensity (a.u.) |
| TCACACTTTGATTAGGCCGTGCAGCCCCAACCACAAGTCCCGGAGTCACCTAGTGCAG | 6680 fluorescence intensity (a.u.) |
| CCTACAAACGTCAATCACAGCCAACAATAACTTCAAACTTCGGAGTCACCTAGTGCAG | 16200 fluorescence intensity (a.u.) |
| GATGTAATTATAATTAAAGTTTTAAAATTTATAGTAATTACGGAGTCACCTAGTGCAG | 34600 fluorescence intensity (a.u.) |
| ACAATCAATCAATCTTGCTTTCCATTCAAAGTCTTCATTTCGGAGTCACCTAGTGCAG | 35000 fluorescence intensity (a.u.) |
| TGCCTTACTCTAATTAGAAGTAATTACTTAATCAATTTCTCGGAGTCACCTAGTGCAG | 24500 fluorescence intensity (a.u.) |
| TATTTATAATTGTGGAGATTATGGGTACCAAATACCCACACGGAGTCACCTAGTGCAG | 13400 fluorescence intensity (a.u.) |
| TTTAACAATAAATAATTTGAAAACATGCCAACTTGAAGAACGGAGTCACCTAGTGCAG | 11900 fluorescence intensity (a.u.) |
| AGGGGTGATCGATCAGCTAATTTCATTTCGCGGGGTGTAACGGAGTCACCTAGTGCAG | 3190 fluorescence intensity (a.u.) |
| AATTATTTGATTAGTTGTACACTTGTACATGCTACTGAAGCGGAGTCACCTAGTGCAG | 36800 fluorescence intensity (a.u.) |
| CACTGATTTCTGAGTACTTAAACTCAGGGGCGGATCAACACGGAGTCACCTAGTGCAG | 8570 fluorescence intensity (a.u.) |
| GTTTAAATTTAAACAAACCTGCAAATTTTAAACTGCTCGTCGGAGTCACCTAGTGCAG | 19000 fluorescence intensity (a.u.) |
| CGAAATTAAGGTTCACGTGAATTTACCCTTTTACCCTTCCCGGAGTCACCTAGTGCAG | 4650 fluorescence intensity (a.u.) |
| AATCGGGTTAAATTAGATCTTATTGCGGTATGAATTGATTCGGAGTCACCTAGTGCAG | 4110 fluorescence intensity (a.u.) |
| CATAAACAGTGAAAACTAATCATCATATTATCACTGCATCCGGAGTCACCTAGTGCAG | 11500 fluorescence intensity (a.u.) |
| GTGTAAATTGCGAGACAAATCTTTTAAGTGTAATTGCTCCCGGAGTCACCTAGTGCAG | 19700 fluorescence intensity (a.u.) |
| ACTTCAATGTTAATTTAGTAAATTTATTTTAACATGACAACGGAGTCACCTAGTGCAG | 13800 fluorescence intensity (a.u.) |
